To fix the notation:
B1: Caulobacter ParB omega fusion; a variant is named by its letters at X, in order, B8GW30 (parent)
chain: MESVVVGEPGMSEGRRGLGRGLSALLGEVDAAPAQAPGEQLGGSREAPIEILQRNPDQPRRTFREEDLEDLSNSIREKGVLQPILVRPSPDTAGEYQIVAGERAWRAAQRAGLKTVPIMVRELDDLAVLEIGIIENVQRADLNVLEEALSYKVLMEKFERTQENIAQTIGKSXSHVANXMRLLXLPDEVQSYLVSGELTAXHARAIAAAADPVALAKQIIEGGLSVRETEALARKAPNLSAGKSKGGRPPRVKDTDTQALESDLSSVLGLDVSIDHRGSTGTLTITYATLEQLDDLCNRLTRGI

Results on 153 variants are retold here after a collection of fitness landscapes (doi:10.1016/j.celrep.2020.107928).

The full ranking holds about 81,000 sequences; the median of “one-hybrid fitness for binding parS DNA” is about -0.17, and the highest 2% start at about 0.51. This is one part of the list. Bounds are passed on as bounds.

Variants of B1 are the subject of the assay. The assay can be described thus: one-hybrid fitness for binding parS DNA (scaled: cognate 1, non-cognate 0); higher = stronger binding. The settings on record: with parS DNA site. Summed up: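 In E. coli USO, a HIS3 reporter with its site placed 19 bp from the promoter was used to select Caulobacter ParB variants randomised at four specificity codons. Growth lasted 48 hours at 37°C on histidine-free M9 containing 0.1 mM IPTG and 5 mM 3-AT. Fitness was taken as the log change in variant-to-wild-type read ratio from Illumina sequencing of pre- and post-selection plasmids, rescaled between the non-cognate and cognate sites.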
In the case of DIRC, the “one-hybrid fitness for binding parS DNA” value is at most 0.2.

YTED: the “one-hybrid fitness for binding parS DNA” value was at most 0.2.

In the case of QARY, the “one-hybrid fitness for binding parS DNA” value was at most 0.2.

As to THRE, the “one-hybrid fitness for binding parS DNA” value was at most 0.2.

Turning to MHAG, the “one-hybrid fitness for binding parS DNA” value was at most 0.2.

With RAQC, the “one-hybrid fitness for binding parS DNA” value was determined as 0.987.

For VYAV, the “one-hybrid fitness for binding parS DNA” value was at most 0.2.

With VQSR, the “one-hybrid fitness for binding parS DNA” value was at most 0.2.

Take YIAT: the “one-hybrid fitness for binding parS DNA” value was at most 0.2.

With RIDW, the “one-hybrid fitness for binding parS DNA” value is at most 0.2.

Regarding SVRS, the “one-hybrid fitness for binding parS DNA” value was at most 0.2.

With GTDI, the “one-hybrid fitness for binding parS DNA” value was at most 0.2.

As to WLLP, the “one-hybrid fitness for binding parS DNA” value was at most 0.2.

With ELYK, the “one-hybrid fitness for binding parS DNA” value is at most 0.2.

For SQAV, the “one-hybrid fitness for binding parS DNA” value was at most 0.2.

In the case of QKSC, the “one-hybrid fitness for binding parS DNA” value is at most 0.2.

For the variant AHLQ, the “one-hybrid fitness for binding parS DNA” value was at most 0.2.

Turning to MCIS, the “one-hybrid fitness for binding parS DNA” value was at most 0.2.

Take PHEV: the “one-hybrid fitness for binding parS DNA” value is at most 0.2.

For TSPM, the “one-hybrid fitness for binding parS DNA” value was at most 0.2.

FMDG: the “one-hybrid fitness for binding parS DNA” value was at most 0.2.

Turning to WVEH, the “one-hybrid fitness for binding parS DNA” value is at most 0.2.

In the case of RYAW, the “one-hybrid fitness for binding parS DNA” value is at most 0.2.

In the case of TEPR, the “one-hybrid fitness for binding parS DNA” value was at most 0.2.

As to YQHR, the “one-hybrid fitness for binding parS DNA” value was at most 0.2.

For AGHF, the “one-hybrid fitness for binding parS DNA” value was at most 0.2.

In the case of RPEH, the “one-hybrid fitness for binding parS DNA” value was at most 0.2.

In the case of PHKN, the “one-hybrid fitness for binding parS DNA” value was at most 0.2.

Take HLLR: the “one-hybrid fitness for binding parS DNA” value was at most 0.2.

Regarding LTHD, the “one-hybrid fitness for binding parS DNA” value is at most 0.2.

Consider GSPV, for which the “one-hybrid fitness for binding parS DNA” value was at most 0.2.

In the case of RACM, the “one-hybrid fitness for binding parS DNA” value is 0.328.

As to FSLR, the “one-hybrid fitness for binding parS DNA” value was at most 0.2.

With SIPK, the “one-hybrid fitness for binding parS DNA” value was at most 0.2.

With HTMT, the “one-hybrid fitness for binding parS DNA” value is at most 0.2.

With ETNI, the “one-hybrid fitness for binding parS DNA” value was at most 0.2.

QFCF: the “one-hybrid fitness for binding parS DNA” value is at most 0.2.

With PTWH, the “one-hybrid fitness for binding parS DNA” value was at most 0.2.

With RRFN, the “one-hybrid fitness for binding parS DNA” value is 0.314.

As for TNTY, the “one-hybrid fitness for binding parS DNA” value was at most 0.2.

In the case of LMRS, the “one-hybrid fitness for binding parS DNA” value was at most 0.2.

Regarding SQLT, the “one-hybrid fitness for binding parS DNA” value was at most 0.2.

With IPGR, the “one-hybrid fitness for binding parS DNA” value is at most 0.2.

As for NHPS, the “one-hybrid fitness for binding parS DNA” value is at most 0.2.

On to AVRA, for which the “one-hybrid fitness for binding parS DNA” value was at most 0.2.

As for LPEP, the “one-hybrid fitness for binding parS DNA” value is at most 0.2.

For the variant TDAR, the “one-hybrid fitness for binding parS DNA” value is at most 0.2.

Regarding QEVG, the “one-hybrid fitness for binding parS DNA” value was at most 0.2.

As to PFPM, the “one-hybrid fitness for binding parS DNA” value was at most 0.2.

Take SCHP: the “one-hybrid fitness for binding parS DNA” value was at most 0.2.

As to HRLH, the “one-hybrid fitness for binding parS DNA” value is at most 0.2.

CSHE: the “one-hybrid fitness for binding parS DNA” value is at most 0.2.

As to NFML, the “one-hybrid fitness for binding parS DNA” value was at most 0.2.

Turning to PLYA, the “one-hybrid fitness for binding parS DNA” value is at most 0.2.

As for PSAK, the “one-hybrid fitness for binding parS DNA” value is at most 0.2.

Consider FGKK, for which the “one-hybrid fitness for binding parS DNA” value was at most 0.2.

With QRPQ, the “one-hybrid fitness for binding parS DNA” value was at most 0.2.

Turning to AFNF, the “one-hybrid fitness for binding parS DNA” value is at most 0.2.

For LRAV, the “one-hybrid fitness for binding parS DNA” value was at most 0.2.

Take LTFT: the “one-hybrid fitness for binding parS DNA” value was at most 0.2.

With NENS, the “one-hybrid fitness for binding parS DNA” value was at most 0.2.

For DITA, the “one-hybrid fitness for binding parS DNA” value was at most 0.2.

Take VGTI: the “one-hybrid fitness for binding parS DNA” value is at most 0.2.

As to SRQY, the “one-hybrid fitness for binding parS DNA” value was at most 0.2.

FRDC: the “one-hybrid fitness for binding parS DNA” value was at most 0.2.

With TDNQ, the “one-hybrid fitness for binding parS DNA” value was at most 0.2.

On to RCPF, for which the “one-hybrid fitness for binding parS DNA” value is at most 0.2.

On to RAAL, for which the “one-hybrid fitness for binding parS DNA” value is at most 0.2.

Regarding TTGR, the “one-hybrid fitness for binding parS DNA” value was at most 0.2.

As to QLHP, the “one-hybrid fitness for binding parS DNA” value was at most 0.2.

With TGFD, the “one-hybrid fitness for binding parS DNA” value was at most 0.2.

With PSAM, the “one-hybrid fitness for binding parS DNA” value is at most 0.2.

As to NHKY, the “one-hybrid fitness for binding parS DNA” value is at most 0.2.

On to CVYI, for which the “one-hybrid fitness for binding parS DNA” value is at most 0.2.

On to QYSL, for which the “one-hybrid fitness for binding parS DNA” value was at most 0.2.

As for FLIR, the “one-hybrid fitness for binding parS DNA” value is at most 0.2.

In the case of PCLL, the “one-hybrid fitness for binding parS DNA” value is at most 0.2.

With PAHW, the “one-hybrid fitness for binding parS DNA” value is at most 0.2.

Turning to SFGL, the “one-hybrid fitness for binding parS DNA” value is at most 0.2.

As to DFYI, the “one-hybrid fitness for binding parS DNA” value was 0.313.

With DRTM, the “one-hybrid fitness for binding parS DNA” value is at most 0.2.

Take IRMD: the “one-hybrid fitness for binding parS DNA” value was at most 0.2.

Regarding AQGE, the “one-hybrid fitness for binding parS DNA” value was at most 0.2.

Turning to DDMG, the “one-hybrid fitness for binding parS DNA” value is at most 0.2.

Take QEDI: the “one-hybrid fitness for binding parS DNA” value was at most 0.2.

For NVYR, the “one-hybrid fitness for binding parS DNA” value was at most 0.2.

Regarding HQMC, the “one-hybrid fitness for binding parS DNA” value is at most 0.2.

In the case of LGPW, the “one-hybrid fitness for binding parS DNA” value was at most 0.2.

Regarding RNHG, the “one-hybrid fitness for binding parS DNA” value stood at 0.866.

Regarding AAFT, the “one-hybrid fitness for binding parS DNA” value is at most 0.2.

For RTDI, the “one-hybrid fitness for binding parS DNA” value was at most 0.2.

For the variant MHLY, the “one-hybrid fitness for binding parS DNA” value was at most 0.2.

Regarding PGGC, the “one-hybrid fitness for binding parS DNA” value is at most 0.2.

Turning to KPLF, the “one-hybrid fitness for binding parS DNA” value was at most 0.2.

Consider QDSF, for which the “one-hybrid fitness for binding parS DNA” value is at most 0.2.

For SCNC, the “one-hybrid fitness for binding parS DNA” value is at most 0.2.

Turning to VCKT, the “one-hybrid fitness for binding parS DNA” value is at most 0.2.

PQFM: the “one-hybrid fitness for binding parS DNA” value is at most 0.2.

Take NLGT: the “one-hybrid fitness for binding parS DNA” value is at most 0.2.

For the variant CLMS, the “one-hybrid fitness for binding parS DNA” value is at most 0.2.

With KNST, the “one-hybrid fitness for binding parS DNA” value was at most 0.2.

With ATFD, the “one-hybrid fitness for binding parS DNA” value was at most 0.2.

Take CHTD: the “one-hybrid fitness for binding parS DNA” value is at most 0.2.

Take HGNR: the “one-hybrid fitness for binding parS DNA” value is at most 0.2.

Consider VMHG, for which the “one-hybrid fitness for binding parS DNA” value is at most 0.2.

As for TPFY, the “one-hybrid fitness for binding parS DNA” value was at most 0.2.

Take EMEL: the “one-hybrid fitness for binding parS DNA” value was at most 0.2.

On to GPTP, for which the “one-hybrid fitness for binding parS DNA” value is at most 0.2.

Regarding EAGM, the “one-hybrid fitness for binding parS DNA” value was at most 0.2.

Turning to VQSD, the “one-hybrid fitness for binding parS DNA” value amounted to 0.28.

As to LRDT, the “one-hybrid fitness for binding parS DNA” value was at most 0.2.

As to HNTS, the “one-hybrid fitness for binding parS DNA” value is at most 0.2.

On to RWMM, for which the “one-hybrid fitness for binding parS DNA” value is at most 0.2.

Consider AACY, for which the “one-hybrid fitness for binding parS DNA” value is at most 0.2.

For the variant FKEG, the “one-hybrid fitness for binding parS DNA” value was at most 0.2.

With ANHR, the “one-hybrid fitness for binding parS DNA” value was at most 0.2.

Consider SDAS, for which the “one-hybrid fitness for binding parS DNA” value is at most 0.2.

In the case of HKMN, the “one-hybrid fitness for binding parS DNA” value is at most 0.2.

For CFGG, the “one-hybrid fitness for binding parS DNA” value is at most 0.2.

As for VMYN, the “one-hybrid fitness for binding parS DNA” value is at most 0.2.

Turning to NQFG, the “one-hybrid fitness for binding parS DNA” value was at most 0.2.

Consider DFAH, for which the “one-hybrid fitness for binding parS DNA” value was at most 0.2.

Turning to QRKK, the “one-hybrid fitness for binding parS DNA” value was at most 0.2.

In the case of EPTF, the “one-hybrid fitness for binding parS DNA” value is at most 0.2.

Take ERQT: the “one-hybrid fitness for binding parS DNA” value is at most 0.2.

Take ATNF: the “one-hybrid fitness for binding parS DNA” value was at most 0.2.

As for RDNY, the “one-hybrid fitness for binding parS DNA” value was at most 0.2.

For RHSN, the “one-hybrid fitness for binding parS DNA” value was 0.379.

As for SSRF, the “one-hybrid fitness for binding parS DNA” value is at most 0.2.

As to RTNE, the “one-hybrid fitness for binding parS DNA” value was at most 0.2.

Turning to NGPF, the “one-hybrid fitness for binding parS DNA” value was at most 0.2.

Turning to WPFW, the “one-hybrid fitness for binding parS DNA” value was at most 0.2.

Consider PNNF, for which the “one-hybrid fitness for binding parS DNA” value was at most 0.2.

For the variant QQCE, the “one-hybrid fitness for binding parS DNA” value was at most 0.2.

In the case of QDGM, the “one-hybrid fitness for binding parS DNA” value is at most 0.2.

With IGTI, the “one-hybrid fitness for binding parS DNA” value was at most 0.2.

With GIMG, the “one-hybrid fitness for binding parS DNA” value was at most 0.2.

Regarding MFKL, the “one-hybrid fitness for binding parS DNA” value is at most 0.2.

With LQTW, the “one-hybrid fitness for binding parS DNA” value was at most 0.2.

Consider RMFP, for which the “one-hybrid fitness for binding parS DNA” value is at most 0.2.

PARL: the “one-hybrid fitness for binding parS DNA” value is at most 0.2.

As to HEWS, the “one-hybrid fitness for binding parS DNA” value is at most 0.2.

Turning to RLQH, the “one-hybrid fitness for binding parS DNA” value worked out at 0.324.

For VQWW, the “one-hybrid fitness for binding parS DNA” value was at most 0.2.

As for KTIF, the “one-hybrid fitness for binding parS DNA” value was at most 0.2.

RGCN: the “one-hybrid fitness for binding parS DNA” value is at most 0.2.

For the variant SKTN, the “one-hybrid fitness for binding parS DNA” value was at most 0.2.

As for TESI, the “one-hybrid fitness for binding parS DNA” value is at most 0.2.

Consider VSHD, for which the “one-hybrid fitness for binding parS DNA” value is at most 0.2.

With VADY, the “one-hybrid fitness for binding parS DNA” value was at most 0.2.

In the case of WGYT, the “one-hybrid fitness for binding parS DNA” value is at most 0.2.

For the variant ERYS, the “one-hybrid fitness for binding parS DNA” value is at most 0.2.

On to HAPG, for which the “one-hybrid fitness for binding parS DNA” value was at most 0.2.
